# Test results as given in the supplement of paper PMC8728848.
# This is one part of the list.
# B1: EPL1 (Trichoderma atroviride), A0PCX2 (protein)
# chain: MQLSNLFKLALFTAAVSADTVSYDTGYDDASRSLTVVSCSDGTNGLITRYHWQTQGQIPRFPYIGGAQAVAGWNSPNCGTCWKLTYSGKTIYVLAIDHTAAGFNIGLDAMNALTNGNAVALGRVSATASQVAVSNCGL
# Columns and labels:
# Test in all cases: glycan array binding signal (z-score within array); higher = stronger binding
# Conditions in all cases: glycan notation: IUPAC condensed, linker removed
# [1] = molecular target: GlcNAc(b1-3)GalNAc
# Summary of the method: (§1)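 The Consortium for Functional Glycomics database supplied 3228 glycan arrays, of which those lacking an available protein sequence were dropped. The binding signal, a within-array Z-score, was averaged across arrays of the same protein sequence and across linkers. Negative scores can be read as non-binding.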
# [2] = molecular target: GlcNAc(b1-3)Man
# Summary of the method: as §1
# [3] = molecular target: GlcNAc(b1-3)[GlcNAc(b1-4)][GlcNAc(b1-6)]GlcNAc
# Summary of the method: as §1
# [4] = molecular target: GlcNAc(b1-3)[GlcNAc(b1-6)]Gal(b1-4)GlcNAc
# Summary of the method: as §1
# [5] = molecular target: GlcNAc(b1-3)[GlcNAc(b1-6)]GalNAc
# Summary of the method: as §1
# [6] = molecular target: GlcNAc(b1-4)Gal(b1-4)GlcNAc
# Summary of the method: as §1
# [7] = molecular target: GlcNAc(b1-4)GlcNAc
# Summary of the method: as §1
# [8] = molecular target: GlcNAc(b1-4)GlcNAc(b1-4)GlcNAc
# Summary of the method: as §1
# [9] = molecular target: GlcNAc(b1-4)GlcNAc(b1-4)GlcNAc(b1-4)GlcNAc(b1-4)GlcNAc
# Summary of the method: as §1
# [10] = molecular target: GlcNAc(b1-4)GlcNAc(b1-4)GlcNAc(b1-4)GlcNAc(b1-4)GlcNAc(b1-4)GlcNAc
# Summary of the method: as §1
# [11] = molecular target: GlcNAc(b1-4)[GlcNAc(b1-6)]GalNAc
# Summary of the method: as §1
# [12] = molecular target: GlcNAc(b1-6)Gal(b1-4)GlcNAc
# Summary of the method: as §1
# [13] = molecular target: GlcNAc(b1-6)GalNAc
# Summary of the method: as §1
# [14] = molecular target: GlcNAc6S(b1-3)Gal(b1-4)GlcNAc
# Summary of the method: as §1
# [15] = molecular target: Kdn(a2-3)Gal(b1-3)GalNAc
# Summary of the method: as §1
# [16] = molecular target: Kdn(a2-3)Gal(b1-3)GlcNAc
# Summary of the method: as §1
# [17] = molecular target: Kdn(a2-3)Gal(b1-4)Glc
# Summary of the method: as §1
# [18] = molecular target: Kdn(a2-3)Gal(b1-4)GlcNAc
# Summary of the method: as §1
# [19] = molecular target: Kdn(a2-3)Gal(b1-4)[Fuc(a1-3)]GlcNAc
# Summary of the method: as §1
# [20] = molecular target: Kdn(a2-6)Gal(b1-4)GlcNAc
# Summary of the method: as §1
# [21] = molecular target: Man(a1-2)Man(a1-2)Man(a1-3)Man
# Summary of the method: as §1
# [22] = molecular target: Man(a1-2)Man(a1-2)Man(a1-6)[Man(a1-3)]Man
# Summary of the method: as §1
# [23] = molecular target: Man(a1-2)Man(a1-3)Man
# Summary of the method: as §1
binder,measurement,setting,value
B1,glycan array binding signal (z-score),[1],-0.464
same,glycan array binding signal (z-score),[2],-0.466
same,glycan array binding signal (z-score),[3],-0.494
same,glycan array binding signal (z-score),[4],-0.117
same,glycan array binding signal (z-score),[5],-0.302
same,glycan array binding signal (z-score),[6],0.183
same,glycan array binding signal (z-score),[7],-0.11
same,glycan array binding signal (z-score),[8],-0.632
same,glycan array binding signal (z-score),[9],-0.177
same,glycan array binding signal (z-score),[10],-0.489
same,glycan array binding signal (z-score),[11],0.321
same,glycan array binding signal (z-score),[12],-0.108
same,glycan array binding signal (z-score),[13],-0.373
same,glycan array binding signal (z-score),[14],-0.471
same,glycan array binding signal (z-score),[15],0.117
same,glycan array binding signal (z-score),[16],-0.354
same,glycan array binding signal (z-score),[17],-0.096
same,glycan array binding signal (z-score),[18],-0.521
same,glycan array binding signal (z-score),[19],-0.322
same,glycan array binding signal (z-score),[20],0.395
same,glycan array binding signal (z-score),[21],-0.108
same,glycan array binding signal (z-score),[22],-0.099
same,glycan array binding signal (z-score),[23],-0.013
